# Measurements from PubChem BioAssay AID686978 (National Center for Advancing Translational Sciences (NCATS), 2013).
# Among all 420,000 compounds or so, about 64,000 (15%) were called active. This list was built around the results that the source calls inconclusive (neither active nor inactive); the mix of calls is not that of the screen. Calls come from the whole dose curve; as a rule, active = well fitted inhibition curve with a large enough effect; inconclusive = small, poorly fitted or top-dose-only effect; inactive = flat fitted curve, though single readings scatter. Potencies of inconclusive entries are left out as doubtful fits.
# Test: qHTS for Inhibitors of human tyrosyl-DNA phosphodiesterase 1 (TDP1): qHTS in cells in absence of CPT; note: nearly all actives have a fitted effect of over 55% in size
# Conditions: DT40 Tdp1-/- hTDP1 cells, no CPT, ATP luminescence, 48 h; activity change, negative = growth inhibition: at 46.2 µM (top of the series) unless noted
# Outline: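 Readout: luminescence from CellTiter-Glo after 30 min in the dark at RT. Cells: DT40 Tdp1-/- with stable hTDP1, 400/well. Exposure: compounds alone, ≥48 hr, 37 °C.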
# % is set by controls: 0 for no effect and ±100 for the full control effect; potency is the fitted concentration of half-maximal effect; tags give direction and shape of the fitted curve.
Structure (SMILES),"activity change, negative = growth inhibition",Potency
C[C@@H](C(=O)O)[C@@H]1C[C@@]1(C)[C@@H](NC(=O)OCc1ccccc1)c1ccccc1,inactive: -20.3%,
O=C(CBr)Nc1c2c(nn1-c1ccccc1)CSC2,inactive: -19.7%,
CN(C)CCCNc1cc(N2CCN(C3CCCCC3)CC2)c2noc3c2c1C(=O)c1ccccc1-3,,active: 20.6 µM
COc1ccc(NC(=O)N2CCCC2C(=O)NCCc2ccccc2)cc1 (stereo not drawn),inactive: 15.6%,
CCOc1ccc(N2C(=O)CC(NCCc3ccc(S(N)(=O)=O)cc3)C2=O)cc1 (stereo not drawn),inactive: -15.5%,
O=C(C[n+]1ccccc1)c1ccc(I)cc1,inconclusive: -30% [inhibitor],
Cc1cc(C(=O)CSc2nnc(-c3ccc(F)cc3)o2)c(C)n1CC1CCCO1 (stereo not drawn),,active: 20.6 µM
CCC1=NN(C(=O)C(=O)NCCc2ccccc2)C(O)(C(F)(F)F)C1 (stereo not drawn),inactive: -12.5%,
COc1ccc(Cn2ccnc2SCC(=O)Nc2nc3ccccc3s2)cc1,,"inconclusive [inhibitor, single point]"
Cc1cc(C)cc(NC(=O)N2CCCN(c3ncccc3[N+](=O)[O-])CC2)c1,,"inconclusive [inhibitor, partial curve, poor fit]"
Cc1cc(Cl)c2oc(C(=O)N3CCN(c4cccc(C)n4)CC3)c(C)c2c1,,"inconclusive [inhibitor, single point]"
Cc1ccc(NC(=O)CN2C(=O)c3cccnc3Oc3ccc(Cl)cc32)cc1,,active: 29.1 µM
COCc1ccc(CN2CCOc3c(O)cc(-c4cc(C)c5ccc(F)cc5n4)cc3C2)o1,,"inconclusive [inhibitor, single point]"
COc1ccc2c(c1)N(S(=O)(=O)c1ccccc1)CCC2=O,inconclusive: -31.9% [inhibitor],
COCCN1C(=O)CCC1(C)c1nnnn1Cc1ccccc1 (stereo not drawn),inactive: -3.65%,
CCOC(=O)c1c(CC(C)C)csc1N,inconclusive: -31.2% [inhibitor],
CCOC(=O)N1CCC(Nc2c([N+](=O)[O-])cc(C(=O)O)cc2[N+](=O)[O-])CC1,inactive: -2.38%,
CCCN1C(=O)C(=O)c2cc(C)ccc21,,active: 3.26 µM
CCOc1ccc(Cc2onc3c2C(=O)CC(C)(C)C3)cc1OCC,,"inconclusive [inhibitor, single point]"
Nn1c(Nc2ccccc2)nc2sc3c(c2c1=O)CCC3,,active: 2.91 µM
O=C/C(=C\Nc1ccc(S(=O)(=O)CCO)cc1)c1nc2cc(Cl)ccc2o1,inactive: -19.8%,
O=c1ccc2nc3ccccc3sc-2c1,,active: 1.46 µM
O=C(CC1CCCC1)N1CCCC(Nc2cccc(F)c2)C1 (stereo not drawn),,"inconclusive [inhibitor, single point]"
